From PubChem BioAssay AID1508624 (National Center for Advancing Translational Sciences (NCATS), 2021)
Among all 48,000 compounds or so, about 120 (0.25%) were called active. Another 4% or so got no clear call; they are omitted. Calls come from the whole dose curve; as a rule, active = well fitted activation curve with a large enough effect; inconclusive = small, poorly fitted or top-dose-only effect, or another doubt; inactive = no such curve, though single readings can be large or run the other way. This is one part of the list.

Assay: Primary qHTS for Identification of Small Molecule Activators of Huntingtin-Antisense Promoter Activity; note: nearly all actives have a fitted effect of over 55% in size
Settings: HEK293 HTT-AS promoter firefly luciferase reporter, 24 h; series mostly up to 57.5 µM; activity change, positive = activation: at the top concentration
Procedure, shortened: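 Quantitative HTS used concentration series of up to 57.5 uM final on HEK293 luciferase reporter cells, 24 h at 37 degrees C. Readout was Dual-Glo firefly luminescence.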

Activity change, positive = activation, inactive:
C=C1C(=CC=C2CCCC3(C)[C@@H]([C@H](C)C=CC=CC(O)(CC)CC)CC[C@@H]23)C[C@@H](O)C[C@@H]1O (stereo partly drawn) -17.8%, Cc1ccc(CN(Cc2ccco2)C(=O)c2oc3c(C)c(C)ccc3c2C)cc1 -26.7%, COc1cccc(N(CC(=O)N2CCC(C)CC2)S(=O)(=O)c2ccc(C)cc2)c1 -23%, COc1cc(OC)c(Nc2ncnc3onc(-c4cccc(Cl)c4)c23)cc1Cl -14.2%, CN(C)c1ccc(C(=C2C=CC(=[N+](C)C)C=C2)c2ccccc2)cc1 -96%, CCC(C)NC(=O)CSc1nc2cc3c(cc2c(=O)n1CCCC(=O)NCc1ccc2c(c1)OCO2)OCO3 (stereo not drawn) -9.9%, CCOc1ccccc1CNC(=O)CN1C(=O)CCc2cc(S(=O)(=O)N3CCCCC3)ccc21 -21.1%, Cc1cccc(OCC(=O)Nc2ccc3nc(Nc4cccc(Cl)c4)cc(C)c3c2)c1 -33.3%, c1ccc(CNc2nc(N3CCOc4ccccc43)nc3c2CCCC3)cc1 -27.4%, COc1ccccc1NC(=O)c1c(NC(=O)c2ccccc2Cl)sc2c1CCC2 -26.8%, CC(=O)N1CCc2c(sc3c2c(=O)n(Cc2ccccc2)c(=O)n3CC(=O)Nc2ccc(C)c(F)c2)C1 -28.5%, COc1ccc(CN2C(=O)C(NC(=O)c3ccccc3OC)(C(F)(F)F)N=C2c2ccccc2)cc1 (stereo not drawn) -23.3%, CCc1ccc(NC(=O)CCn2cnc3ccccc3c2=O)cc1 10.7%, CCc1ccc(S(=O)(=O)c2nnn(-c3cccc(C)c3)c2N)cc1 -33.3%, COc1ccc(NC(=O)Cn2ccn(-c3ccccc3)c(=O)c2=O)cc1 -5.47%, Cc1cccc(C)c1OCC(=O)N[C@@H](Cc1ccccc1)[C@@H](O)C[C@H](Cc1ccccc1)NC(=O)[C@H](C(C)C)N1CCCNC1=O, Cc1ccc(-n2nc(C)c3c(C(=O)Nc4ccc(Br)c(C)c4)cc(C)nc32)cc1 -7.39%, COCCNC(=O)CSc1nc(-c2ccc(C)cc2)nc2c1c(=O)n(C)c(=O)n2C -2.32%, COC(=O)C1=C(C)NC(=O)C1(NC(=O)c1ccccc1C)C(F)(F)F (stereo not drawn) -1.15%, COc1ccc(CCC(=O)NCc2ccc3c(c2)CCN3C(=O)c2ccc(C)cc2)cc1 -32.4%, COc1cccc(-c2nc(SCC(=O)N3CCc4ccccc43)c3c(=O)n(C)c(=O)n(C)c3n2)c1 -0.0467%, O=C(NCc1ccc(F)cc1)C1CCN(C(=O)c2cnn(-c3ccccc3)c2-n2cccc2)CC1 -28.8%, CCCCN(CC)CCCNC(=O)c1cn(C)c2ccc(S(=O)(=O)N(C)C3CCCCC3)cc2c1=O -13.2% [at 11.5 µM, percent change from vehicle, -100% = no light], CCOc1cc(C(=O)NCc2ccc3c(c2)CCN3C(=O)CC)cc(OCC)c1OCC -6.16%, COc1cccc(CNC(=O)CCC(=O)N2CC3CCCN3c3ccccc32)c1 (stereo not drawn) -9.26%, Cc1ccccc1NC(=O)CN(C)S(=O)(=O)c1cccc2nsnc12 -5.41%, CCC(Cn1nnc2ccccc2c1=O)NC(=O)Nc1cccc(Cl)c1 (stereo not drawn) -26.4%, COc1ccc(-c2[nH]ncc2C(=O)NCc2ccc(F)cc2)cc1 -15.8%, Cc1ccc(C(=O)N2CCN(c3ccccc3F)CC2)cc1NC(=O)c1nsc2ccccc12 -26.1%, CCc1cccc(NC(=O)Cn2c(=O)n(CC3CCC(C(=O)NCCc4ccccc4)CC3)c(=O)c3ccccc32)c1 (stereo not drawn) -27.5%, COc1cc(C(=O)Nc2ccc(-c3cc(C(F)(F)F)nn3-c3ccccc3)cc2)cc(OC)c1OC -16.2%, COc1cc(OC)c(NC(=O)Cn2c(=O)cc(C(F)(F)F)c3c(C)nn(C)c32)cc1Cl -6.53%, Cc1ccccc1NC(=O)CSc1nc2ccc(NC(=O)COc3ccccc3F)cc2s1 -25.5%, COCCNC(=O)C(=O)Nc1c2c(nn1-c1ccccc1)CS(=O)(=O)C2 -8.43%, CCc1ccccc1NC(=O)c1cnn2c(C(F)(F)F)cc(-c3ccc(OC)c(OC)c3)nc12 -13%, Cc1cccc(NC(=O)Cn2nc(N3CCN(c4ccccc4)CC3)ccc2=O)c1C -18.4%, CCOC(=O)c1cnn(-c2cccc(F)c2)c1C1CCNCC1 -8.92%, COc1ccccc1OCc1ccc(C(=O)Nc2ccc(C)c(C)c2)o1 0.95%, CCOc1ccc(CCNC(=O)Cn2nc(C)c3c(C)n(-c4ccccc4)nc3c2=O)cc1OCC 0%, CCOC(=O)c1c(C)sc(-c2c(-c3cc(C)ccc3C)[nH]c3c2c(=O)[nH]c(=O)n3C)c1O -22.6%, CCn1cc2nc(SCc3cccc(OC)c3)n(Cc3ccc(Cl)cc3)c(=O)c2n1 -39.2%, CCCOc1ccc(CNC(=O)C2CCN(c3nc4ccccc4nc3C(F)(F)F)CC2)cc1 6.05%, COC(=O)c1cc2sccc2n1Cc1ccccc1 -19%, O=[N+]([O-])c1ccc(O)c2ncccc12 -35.9%, CC1=C(C(=O)Nc2ccccc2Cl)C(c2cccs2)n2ncnc2N1 (stereo not drawn) -18.8%, O=C(CCC1N=C2c3ccccc3N=C(SCc3cccc(F)c3)N2C1=O)NC1CCCCC1 (stereo not drawn) -0.429%, Cc1cc(NS(=O)(=O)c2ccc(NC(=O)COc3c(C)cc(Br)cc3C)cc2)no1 -14%, O=S(=O)(NCc1ccccc1)c1ccc2[nH]c3c(c2c1)CCCCC3 -31.7%, COc1cccc(NS(=O)(=O)c2ccc3[nH]cc(C(=O)NC4CCCCC4)c(=O)c3c2)c1 -48.3%, COc1ccccc1CCNC(=O)Cc1c(C)c2c(cc(C)c3c(C)coc32)oc1=O -13.8%, COc1ccc(N2C(=O)C(CC(=O)Nc3ccc(F)cc3)N(CCC3=CCCCC3)C2=O)cc1 (stereo not drawn) -29.6%, CN(C(=O)Nc1cn(C)c(=O)c2ccccc12)c1ccccc1 -22.6%, COc1ccc(Cl)cc1NC(=O)CN1c2ccccc2S(=O)(=O)c2ccccc21 -18.8%, O=C(CSC1=Nc2ccccc2N=C(c2ccc(F)cc2)C1)Nc1cc(F)ccc1F -5.91%, COCCCNC(=O)c1c(NC(=O)c2cc(=O)c3cc(C)c(C)cc3o2)sc2c1CCCC2 16.3%, CCCN1C(=O)CN(C2CCCCCC2)C(=O)C1c1ccc(OCC)c(OC)c1 (stereo not drawn) -23.7%, CCCCNc1cc(NC2CCCCC2)c2c3c(onc13)-c1ccccc1C2=O -24.3%, CCc1ccc(N2C(=O)CS(=O)(=O)C23C(=O)N(Cc2ccccc2)c2ccccc23)cc1 (stereo not drawn) -19.5%
